Measured values published in a compilation of properties of binary mixtures (doi:10.1016/j.molliq.2011.08.008).
Some of these densities may be calculated back from excess volumes.

Assay: xn = mol fraction of the nth substance listed
Conditions: 100 kPa

CCOCCOCCOCCO + CCCC[n+]1ccn(C)c1.F[P-](F)(F)(F)(F)F
mass density [kg/m3]
Conditions | x2 = 0.0558 | x2 = 0.1123 | x2 = 0.2121 | x2 = 0.3079 | x2 = 0.4014 | x2 = 0.5002 | x2 = 0.6006 | x2 = 0.7035 | x2 = 0.8015 | x2 = 0.9075
288.15 K | – | 1078.3 | – | 1157.6 | 1191.3 | 1225.1 | 1257.7 | 1289.7 | 1318.9 | 1350.2
293.15 K | 1048.3 | 1073.9 | 1116.3 | 1153.2 | 1187 | 1220.8 | 1253.5 | – | – | –
298.15 K | 1043.9 | 1069.5 | 1111.9 | 1148.9 | 1182.7 | – | 1249.3 | 1281 | 1310.6 | –
303.15 K | 1039.5 | 1065.1 | 1107.5 | 1144.5 | 1178.4 | 1212.3 | 1245.1 | 1276.7 | – | 1337.5
308.15 K | 1035.1 | 1060.8 | 1103.2 | 1140.2 | 1174.1 | – | 1241 | 1272.5 | 1302.2 | 1333.4
313.15 K | – | – | 1098.8 | 1135.9 | 1169.8 | 1203.8 | 1236.7 | 1268.2 | – | 1329.2
318.15 K | 1026.4 | 1052 | 1094.5 | 1131.5 | 1165.5 | 1199.5 | 1232.4 | 1264 | 1293.7 | 1325
